This is an account of results in the supplement of paper PMC11417369.

This is one part of the list.

For the assay, the system named is PfSIP2 AP2 domain 1 (GST-tagged). The assay can be described thus: gcPBM binding intensity (ln(normalized median fluorescence intensity)); higher = stronger DNA binding. The gist of the method:
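Binding intensity is defined as the maximum Masliner-normalised natural-log median intensity across replicate spots for either probe orientation. It was measured on an Agilent 4 × 180k array of primer-extended double-stranded 36-bp intergenic genomic probes and negative controls, to which GST-tagged P. falciparum DNA-binding domains made in E. coli were applied for 1 h in 1× PBS with 1% milk, 0.2 mg/ml BSA, 0.5% salmon testes DNA and 0.03% Triton X-100. Detection was by Alexa488 anti-GST antibody and scanning at 488 nm.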
As to “AAAAAAAAAAAACATACACACATACATACAGATATA [CACACA_site4681]”, the “gcPBM binding intensity (ln)” value turned out to be 6.96.
Regarding “TTTCACTACACAAATACACACAAAAATATATGTGCA [CACACA_site2632]”, the “gcPBM binding intensity (ln)” value turned out to be 7.08.
In the case of “TTCTATTTTATATGTGCACACATATACACCCACAAA [CACACA_site1130]” it was 9.37; in that of “TTCTTTTTGAAACACACACACACAAGAAAATATATA [CACACA_site3110]”, 7.29.
In the case of “AAATTTTTTGTTCAATGTACTTTTTTATTATATTTT [XGTACX_site5298]” it was 7.08; in that of “ATTTTTTAAATTTAAACACACATTTTGTATATGTTT [CACACA_site1654]”, 7.02; in that of “GATATATAATATAATACACACATTTTATGAATGTAA [CACACA_site24]”, 6.87.
In the case of “TCTACTATTATATATTGTACAAATGATACTTATATT [XGTACX_site1819]” it was 7.04; in that of “TAAAATTTTTGTTTTTGTACGAAACATCAATTTTAC [XGTACX_site4963]”, 6.95.
Consider “TTCTATATATTTGGAAGTACATTATATTTATTTTTT [XGTACX_site3172]”, for which the “gcPBM binding intensity (ln)” value was found to be 7.17.
On to “CATATATAAATATGTACACACATATGTATGATCTCA [CACACA_site3868]”, for which the “gcPBM binding intensity (ln)” value is 7.02.
As for “TTATTTATAAGTAATATTATATATTCTTTTAATACA [CACACA_negctrl_site471]”, the “gcPBM binding intensity (ln)” value worked out at 6.59.
Next, “AGATCTATTATTTTTTGTACTTATATATAAACTTAA [XGTACX_site1737]”: 7.06.
In the case of “ATAGGCAAAAAGTGTACACATTCATTTATATAAATA [CACACA_site4480]” it was 7.6; in that of “AATGGTATAAACAATACACACATAATATAAATATTG [CACACA_site6878]”, 6.75; in that of “TTATATATAAATGTGTGTACTTATAAAATAATCATT [XGTACX_site5370]”, 7.23.
Next, AAAAAAATTACGCAAGTGCATATAATTTAACAAAAA: 8.04; “ATATATATATATCACGCACACACGAATTTTAAATAT [CACACA_site3131]”: 9.06; “ATCGCGAAGTAGCATTCACACACAGCAAAATATATA [CACACA_site9162]”: 6.87.
In the case of “AACATTTATATAAAAGAACACACATATAAAATATTA [CACACA_site9199]”, the “gcPBM binding intensity (ln)” value was 6.94.
“AATGGTAATCCACATACACACACACCGACACATATA [CACACA_site8876]”: the “gcPBM binding intensity (ln)” value is 7.22.
Next, “AAATAACAAAAGAAGGTGCTCATAAAAATTCATACA [GTGCAC_site9864]”: 8.23.
Next, “CATTTACCCTTATTAACACACAAAATAAAATACGCT [CACACA_site7249]”: 7.14; “AACAATAGTAAAAATACACACATTAAACTTCATTTC [CACACA_site2126]”: 6.7; “ATACAATGATATATACATATATATATATATATATAT [TGCATGCA_negctrl_site359]”: 9.86.
“AAATTATAAAAAAAAAAAAAAAAAAAAAAAAAAAAA [XGTACX_negctrl_site501]”: the “gcPBM binding intensity (ln)” value was found to be 7.19.
Next, “AAAAAAAAAAAAAAAAAAAAAAAAAAAAAAAAAAAA [CACACA_negctrl_site204]”: 9.12; “GAAAGGACAAGAATAGTGCACATGCAATGTTATTTT [GTGCAC_site9985]”: 9.8.
In the case of “ACAAAATTTTTAAGAACACACAAAAATGTACTATCG [CACACA_site2550]” it was 6.73; in that of “AATCATGCTCCGGAAAGTACATAAATAAATAAATAA [XGTACX_site1690]”, 7.18; in that of “AAAAAAAAAAAACATACACACATACATACATATATA [CACACA_site8222]”, 7.06.
Take “CACATACACATACAAACACACATTATGTATATATAT [CACACA_site1599]”: the “gcPBM binding intensity (ln)” value was determined as 7.44.
In the case of “ATATATACAACTAAAGAACACACATCATTGTTCATT [CACACA_site9224]” it was 7.
In the case of “AAACAATTTTTTAAAAGTACTTGAAAATTGTGAAAT [XGTACX_site2461]” it was 6.99.
With “TGTATATTTGATTCATGTACATATTTTATTTTAACT [XGTACX_site5169]”, the “gcPBM binding intensity (ln)” value amounted to 7.14.
Next, “CAGATTTATTCAAACGCATGCTGTTTTAAAATAAAA [TGCATGCA_site874]”: 6.65; “CCTATATAATTATAATGTACTTGTAAAAAATATAAC [XGTACX_site2864]”: 7.42.
Next, “AAATATAAAAAATATACACACATATATAATATATAT [CACACA_site2963]”: 7.26; ATCCGCTGCCTTTTGGTGCAGAACATAATCATGTAA: 9.39; “TTTAAAATATTAAAATGTACATATATATATATATAT [XGTACX_site6784]”: 9.73.
Next, “TATATATATATATATACACACATACATATATATATT [CACACA_site8185]”: 9.25; “ACATAAATATATTTTTCACACATCCTTAGTTATGAA [CACACA_site5179]”: 7.13.
With “AATGTATTTAAACTGACACACAAAAAAAATAAAATA [CACACA_site2138]”, the “gcPBM binding intensity (ln)” value amounted to 7.02.
Turning to “ATATTGTAAGTAAACACACACACATCTATAGGTATA [CACACA_site6462]”, the “gcPBM binding intensity (ln)” value amounted to 7.01.
In the case of “AATAGTAAAAGATATACACACACCAAAAAATAGAAT [CACACA_site2289]” it was 7.06; in that of “ATTATACATATGTATGCACACATACATACACATATA [CACACA_site9155]”, 7.18.
Next, “ATATATATATGTTTATGTACTTATAATAATATAACT [XGTACX_site4828]”: 8.88; “TAATTTAAGAAAAAATGTACACAAATATAATAATAG [XGTACX_site8317]”: 7.19.
Next, “ATACATATATGTGTGTGTACATAAATGTATATATTT [XGTACX_site6242]”: 6.91; “GCATGGAACCATATATGTACATATATAAATAAATAA [XGTACX_site4996]”: 7.16.
Regarding “GTATCTTTCAAAATATGTACATATATATATGTGTGT [XGTACX_site3512]”, the “gcPBM binding intensity (ln)” value turned out to be 7.41.
In the case of “AACTTTATTCCTAATTGTACACATATATATATATAT [XGTACX_site6823]” it was 9.34; in that of “CGTATAACATATGACACACACACATACATACACAAA [CACACA_site1803]”, 7.22.
In the case of “GATTTATATAATTCAAGTACTAAAAATATTTTTAAT [XGTACX_site5285]” it was 7.09.
Consider “AAAAAAAATATCTATGCATGTAATATTATGATATTG [TGCATGCA_site546]”, for which the “gcPBM binding intensity (ln)” value was found to be 6.86.
Next, “TAACATTAAAATAAAAGTACTTAATAATATTAAGTA [XGTACX_site5920]”: 6.76; “TTAATAATAAATGAAAGTACATATAAAAAAAAAAAA [XGTACX_site717]”: 6.84.
